52 compounds from PubChem BioAssay AID1346428 (National Center for Advancing Translational Sciences (NCATS), 2018) can be followed below.

The whole screen tested about 48,000 compounds, of which about 1,200 (2.5%) were called active. About 2% were inconclusive and are not listed.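 Rule for the calls: active = activation of at least 60% and not above a set upper limit (about 1 call in 100 departs from these limits); inconclusive = activation of 40% to 60%, or above that upper limit; inactive = activation under 40%.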 This is one part of the list.

The test addresses Probable G-protein coupled receptor 32 (Homo sapiens) (UniProt O75388). In words: qHTS for Agonists of Human Resolvin D1 Receptor DRV1. Note: 0% is about no effect. As to conditions: CHO-K1 GPR32 beta-arrestin PathHunter luminescence, 90 min; at 76.9 µM; active compounds read high; zero percent set by DMSO-only wells. Summed up: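 Luminescent readout of beta-Gal complementation quantifies ligand-induced beta-arrestin association with GPR32 in CHO-K1 cells; 90 min compound incubation at 37 °C, detection 1 h at room temperature.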
UniProt O75388, sequence (O75388 whole entry, looked up): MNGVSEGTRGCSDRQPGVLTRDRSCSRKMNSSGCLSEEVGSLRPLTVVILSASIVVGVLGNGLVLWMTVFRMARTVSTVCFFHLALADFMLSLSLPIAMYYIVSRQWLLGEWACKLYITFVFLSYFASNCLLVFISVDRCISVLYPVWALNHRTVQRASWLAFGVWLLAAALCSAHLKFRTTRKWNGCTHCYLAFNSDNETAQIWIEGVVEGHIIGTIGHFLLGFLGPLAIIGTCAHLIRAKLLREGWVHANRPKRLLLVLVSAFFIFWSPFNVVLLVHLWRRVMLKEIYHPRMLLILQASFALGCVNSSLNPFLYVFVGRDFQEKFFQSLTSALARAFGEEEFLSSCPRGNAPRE
As to `COc1cc(NC(=O)c2ccc3oc(=O)c(S(=O)(=O)c4ccccc4)cc3c2)cc(OC)c1`, the activation was inactive: 19.6%.

On to `COc1ccc(S(=O)(=O)Nc2cccc(-c3ccc(N4CCC(C)CC4)nn3)c2)c(OC)c1`, for which the activation was inactive: -2.81%.

Turning to `CCOc1ccc(NC(=O)Cn2c(=O)n(-c3cccc(Cl)c3)c(=O)c3c2c2cc(C)ccc2n3C)cc1`, the activation was inactive: -0.271%.

For the compound `COc1c(C)cc(Br)cc1C(=O)Nc1ccc(-c2nc3ncccc3o2)cc1`, the activation is inactive: 11.3%.

Take `CNc1cc(NS(=O)(=O)c2ccc(N)cc2)nc(NC)n1`: the activation was inactive: -0.887%.

For the compound `Cc1cccc(C(=O)N2CCc3cc(CNC(=O)COc4ccc(Cl)cc4)ccc32)c1`, the activation was inactive: -6.95%.

As for `CCOc1cccc(C2c3[nH]c4ccccc4c3CCN2C(=O)CSc2ccccc2)c1` (configuration not stated), the activation was inactive: -37%.

Regarding `CCOC(=O)c1c(NC(=O)c2nc(SCC)ncc2Cl)sc2c1CCCC2`, the activation was inactive: 12.2%.

Consider `Cc1ccc(N2C(=O)CSC23C(=O)N(Cc2ccccc2F)c2ccccc23)cc1F` (configuration not stated), for which the activation is inactive: -22.8%.

On to `COc1ccc(NC(=O)Cn2c(=O)n(CCc3ccccc3)c(=O)c3c4c(sc32)CCCC4)cc1`, for which the activation is inactive: -25%.

Take `CC(C)c1ccc(NC(=O)C2CCN(S(=O)(=O)c3cccc4nonc34)CC2)cc1`: the activation was inactive: -15%.

In the case of `Cc1ccccc1Nc1c(-c2ccc(Cl)cc2)nc2c(C)cccn12`, the activation is inactive: -30%.

Turning to `CCOC(=O)c1c(C)[nH]c(C)c1S(=O)(=O)NCC(=O)Nc1ccc(C)c(N(C)C)c1`, the activation was inactive: -11.7%.

Consider `CCOc1cc(CNC(=O)Cn2c(=O)c3cccn3c3ccc(F)cc32)cc(OCC)c1OCC`, for which the activation was inactive: -16.1%.

On to `CCSc1nnc2c(n1)OC(c1cc(OC)c(OC)c(OC)c1)Nc1ccccc1-2` (configuration not stated), for which the activation is inactive: -11.7%.

`Cc1ccccc1NC(=O)CSc1cn(CC(=O)N2CCCCCC2)c2ccccc12`: the activation was inactive: -6.12%.

On to `Cc1nc(SCC(=O)Nc2ccccc2C)cc(-c2ccccc2)n1`, for which the activation is inactive: -7.25%.

With `COc1cc2c(=O)c(C(=O)c3ccc(C)c(C)c3)cn(Cc3ccc(F)cc3)c2cc1OC`, the activation is inactive: 3.15%.

Turning to `CCOc1ccccc1NC(=O)c1ccc2c(c1)CCN2S(=O)(=O)c1ccc(C)cc1`, the activation is inactive: -8.02%.

In the case of `Cc1ccc(Cl)cc1NC(=O)CCC(=O)N1CC(C)Sc2ccccc21` (configuration not stated), the activation is inactive: -8.48%.

With `CCC1CN(C(=O)N2CCC(C(=O)N3CCN(c4cccc(C)c4C)CC3)CC2)c2ccccc2O1` (configuration not stated), the activation is inactive: -15.1%.

Consider `COc1ccccc1-c1nnc(SCC(=O)Nc2ccccc2F)o1`, for which the activation was inactive: 8.66%.

As for `O=C(NCCc1ccc(Cl)cc1)C1CCN(c2ncnc3c2nc2n3CCCCC2)CC1`, the activation is inactive: -10.2%.

In the case of `Cc1ccc(-n2c(=O)c3c4c(sc3n(CC(=O)c3ccc(Cl)cc3)c2=O)CCC4)cc1C`, the activation is inactive: 3.06%.

For `CN(Cc1ccco1)C(=O)c1ccc2c(c1)N(Cc1ccccc1F)C(=O)c1ccccc1S2`, the activation was inactive: -36%.

`CC(=O)N1c2ccc(S(=O)(=O)NCC3CCC(C(=O)Nc4ccc(C)cc4)CC3)cc2CC1C` (configuration not stated): the activation is inactive: 1.64%.

`CCc1ccc(NC(=O)CN2CCCN(Cc3cccc(Cl)c3)S2(=O)=O)cc1`: the activation was inactive: 3.5%.

As for `COC(=O)c1cc2sc(C)cc2n1CC(=O)Nc1ccc(C)c(C)c1`, the activation was inactive: -5.02%.

Turning to `COc1ccc2c(c1)c1c(c(=O)n(-c3ccc(F)c(Cl)c3)c(=O)n1CC(=O)N1CCCC1)n2C`, the activation is inactive: -19.1%.

For `Cc1c2cnn(-c3ccccc3)c(=O)c2c(C)n1CC(=O)NCCc1ccc(Cl)cc1`, the activation is inactive: 5.24%.

With `CCOc1ccc(NC(=O)c2cc(S(=O)(=O)N3CCCCCC3)cn2C)cc1`, the activation is inactive: -2.58%.

Turning to `COc1cc(CNC(=O)c2ccc3c(c2)N(C)C(=O)C2CCCCN32)cc(OC)c1OC` (configuration not stated), the activation was inactive: -3.63%.

`CC(=O)N1CCc2c(sc3c2c(=O)n(-c2ccccc2)c(=O)n3CC(=O)Nc2ccccc2)C1`: the activation is inactive: 1.07%.

`CC(=O)N1c2nc(C(C)C)nn2C2(CCCCC2)[C@@H]2CCCC[C@@H]21`: the activation is inactive: -8.51%.

As for `CCOC(=O)[C@H](CCc1ccccc1)N[C@@H](C)C(=O)N1[C@H](C(=O)O)C[C@H]2CCCC[C@@H]21`, the activation was inactive: 3.92%.

With `CC(C)CN(CCCNC(=O)c1cc(=O)[nH]c2ccc(S(=O)(=O)N3CCCCCC3)cc12)CC(C)C`, the activation was inactive: -2.03%.

Take `CCOc1ccc2oc(=O)cc(CN3CCN(c4cc(C)ccc4C)CC3)c2c1`: the activation is inactive: -15.3%.

Regarding `CC(=O)Nc1cccc(NC(=O)CN2C(=O)CCSc3ccccc32)c1`, the activation is inactive: -0.468%.

As to `O=C(Nc1ccc2oc(-c3ccc(O)c(Br)c3)nc2c1)c1cc2ccccc2o1`, the activation was inactive: -8.1%.

On to `Cc1cccc(N2CCN(C(=O)c3cccn4c(=O)c5cc(Cl)ccc5nc34)CC2C)c1` (configuration not stated), for which the activation is inactive: -5.31%.

Turning to `Cc1nc2nc(NC(=O)c3ccccc3F)[nH]n2c(=O)c1Cl`, the activation is inactive: 6.15%.

On to `O=C(CSc1nnc(-c2cccc(Cl)c2)o1)N1CCc2ccccc21`, for which the activation is inactive: 4.71%.

Turning to `CC(C)(CO)[C@@H](O)C(=O)NCCCO`, the activation was inactive: -1.73%.

For `COc1cc(OC)c(NC(=O)C2=C(C)C(=O)OC23CCCCCC3)cc1Cl`, the activation is inactive: -8.56%.

As for `CCn1c2c(c(=O)n3ncc(C(=O)Nc4cc(Cl)ccc4C)c13)CN(Cc1ccc(OC)cc1)CC2`, the activation was inactive: -1.14%.

Turning to `COc1ccc(C2C=C(c3cccc(OC)c3)Nc3c(C(=O)Nc4ccccc4)cnn32)cc1` (configuration not stated), the activation was inactive: -28.3%.

With `Cc1ccn2c(Nc3ccc(C(C)C)cc3)c(-c3cccs3)nc2c1`, the activation is inactive: -22.1%.

With `CCN(CC)S(=O)(=O)c1ccc2nc(NC(=O)c3cccnc3)sc2c1`, the activation was inactive: 18.1%.

On to `O=C(c1ccc(Cl)cc1)N1CCC(c2ccncc2)CC1`, for which the activation was inactive: 8.45%.

For `COc1cc(-c2noc(-c3ccc(N4CCN(C)CC4)c([N+](=O)[O-])c3)n2)cc(OC)c1OC`, the activation was inactive: 0.997%.

Regarding `O=C(Cn1c(=O)ccc2cc(S(=O)(=O)N3CCCC3)ccc21)NCc1ccc(Cl)cc1`, the activation is inactive: 15.8%.

As to `CC(C)(C)c1ccc(S(=O)(=O)NCc2ccc3c(c2)CCN3C(=O)c2ccccc2)cc1`, the activation was inactive: -7.44%.
